Experimental data reported in the supplement of paper PMC10338343.
± gives the standard deviation. This is a selection; strong and weak results do not stand in their true shares.
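Also: 1 nM active piRISC with 0.1 nM target library at 33 °C single turnover.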

What follows are sequences tested on MIWI (PIWIL1) piRISC loaded with piRNA #1 (30 nt) (assay: pre-steady-state target cleavage rate (min^-1); MIWI and MILI are mouse PIWI proteins and EfPiwi is from a freshwater sponge; tags in brackets are library labels; higher = faster piRNA-guided slicing of the target). Details: guide: piRNA #1 5'p-UGAGGUAGUAGGUUGUAUAGUAUCCAGAGG; auxiliary factor: 500 nM mouse GTSF1.
Procedure, shortened: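 Cleave-'n-Seq measured uncleaved targets by sequencing after a transcribed, DNA-blocked target RNA library […] was mixed with 1 nM active affinity-purified piRISC holding one synthetic guide, with or without 500 nM GTSF1 partner protein, at 33 °C in HEPES–potassium acetate buffer for 0–8 or 0–960 min. Counts were normalised to depth and to weakly complementary targets, three trials were pooled, and k3 was capped at 0.0001 min^-1. A burst-and-steady-state fit gave the pre-steady-state cleavage rate.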
In the case of GGAGACCUAACUAUGACAACCUACUACCUCA, the “pre-steady-state target cleavage rate” value is reported as 0.177 ± 0.019. GGAGACGAUACUAUACAAGCUAGUACCUCA was tested, and the “pre-steady-state target cleavage rate” value was 0.368 ± 0.044. GGAGACCUUACAAUACAACCUUCUACCUCA was tested, and the “pre-steady-state target cleavage rate” value was 0.0854 ± 0.015. With GGUCUGGAUACUAUAUCAACCUACUACCUCA the “pre-steady-state target cleavage rate” value was 0.535 ± 0.081. GGAGACCAAACUAUACAAGCUACUACCUCA was tested, and the “pre-steady-state target cleavage rate” value was 0.517 ± 0.054. GGACUGGAUACUAUACAACCUACUGCCUCA was tested, and the “pre-steady-state target cleavage rate” value was 0.817 ± 0.097. GGAGACCUAUCUAUUCAACCUACUACCACA was tested, and the “pre-steady-state target cleavage rate” value was 0.138 ± 0.022. With GGAGUGGAUACUAUACAACCUACUACCAUCA the “pre-steady-state target cleavage rate” value was 0.269 ± 0.036. In the case of GGAGUGGAUACUAUACUAGCUACUACCUCA, the “pre-steady-state target cleavage rate” value is reported as 0.437 ± 0.03. With GGAGAGGAUACUAAACAACCUACUACCUGA the “pre-steady-state target cleavage rate” value was 0.24 ± 0.031. With GGUCUGCAUACAAUACAACCUACUACCUCA the “pre-steady-state target cleavage rate” value was 1.45 ± 0.11. For GGUCUGGAUACAAUACAUCCUACUACCUCA, the “pre-steady-state target cleavage rate” value was 1.17 ± 0.068. GGACUGGAUACUAUACAACCUACUCCCUCA was tested, and the “pre-steady-state target cleavage rate” value was 0.245 ± 0.039. In the case of GCUCUGGAUACUAUACAAUCUACUACCUCA, the “pre-steady-state target cleavage rate” value is reported as 0.523 ± 0.028. With GGAGUGCUUACUAUACAACCUACUACCUCA the “pre-steady-state target cleavage rate” value was 1.53 ± 0.11. For CCUCUGGAUUCUAUACAACCUACUACCACA, the “pre-steady-state target cleavage rate” value was 0.876 ± 0.067. For GGAGAGGUUACUAUACAACCUACUACCUGA, the “pre-steady-state target cleavage rate” value was 0.108 ± 0.019. With GGAGACGAUACUAUACAACCUACCACCUCA the “pre-steady-state target cleavage rate” value was 0.737 ± 0.045. With GGACUGAUACUAUACAACCUACUACCUCA the “pre-steady-state target cleavage rate” value was 1.72 ± 0.11. For GGUACUGGAUACUAUACAACCUACUACCUCA, the “pre-steady-state target cleavage rate” value was 1.75 ± 0.079. In the case of GGAGACCUUACUAUAUCAACCUACUACCUCA, the “pre-steady-state target cleavage rate” value is reported as 0.0244 ± 0.0056. With GGACUGGAUACUAUACAACGUACUACGUCA the “pre-steady-state target cleavage rate” value was 0.397 ± 0.065. In the case of GCUCUGGAUACUAUACAACCUACGUACCUCA, the “pre-steady-state target cleavage rate” value is reported as 0.68 ± 0.087. In the case of GGUCUGGAUACUAUACAACCUACUCACCUCA, the “pre-steady-state target cleavage rate” value is reported as 0.819 ± 0.096. In the case of GGACUGGUUACUAUACAACCAACUACCUCA, the “pre-steady-state target cleavage rate” value is reported as 0.0817 ± 0.0099. In the case of GGUCUGGAUACUAUUCAACCUACUACGUCA, the “pre-steady-state target cleavage rate” value is reported as 0.363 ± 0.038. GGAGAGGAUAGAAUACAACCUACUACCUCA was tested, and the “pre-steady-state target cleavage rate” value was 0.453 ± 0.042. In the case of GGACUGGUUACUAUACAACCUACAACCUCA, the “pre-steady-state target cleavage rate” value is reported as 0.275 ± 0.04. With GGAGACGAUUCUAUACAACCUAGUACCUCA the “pre-steady-state target cleavage rate” value was 0.418 ± 0.053. In the case of GGAGACCAUAGUAUACAACCUACUACCACA, the “pre-steady-state target cleavage rate” value is reported as 0.594 ± 0.062. With GGUCUGCAUACUAUACAACCUACUACCACA the “pre-steady-state target cleavage rate” value was 0.7 ± 0.07. GGAGACCUAUCUAUACAACGUACUAGCUCA was tested, and the “pre-steady-state target cleavage rate” value was 0.0147 ± 0.0048. With GCUCUGGAGACUAUACAACCUACUACCUCA the “pre-steady-state target cleavage rate” value was 1.99 ± 0.17. With CCUCUGGAUAGUAUACAACCUAGUACCUCA the “pre-steady-state target cleavage rate” value was 0.312 ± 0.064. In the case of CCUCUGGAUACUAUAACAACCUACUACCUCA, the “pre-steady-state target cleavage rate” value is reported as 1.85 ± 0.13. In the case of GGUCUGGAUACUAUAGAAGCUACUACCUCA, the “pre-steady-state target cleavage rate” value is reported as 0.261 ± 0.029. With GGAGUGGAUACGAUACAACCUACUACCUCA the “pre-steady-state target cleavage rate” value was 1.56 ± 0.08. With GGAGACGAUACUAUACAACCUACGACCUCA the “pre-steady-state target cleavage rate” value was 0.821 ± 0.063. With GGAGACCAUACUAAUGAACCUACUACCUCA the “pre-steady-state target cleavage rate” value was 0.00823 ± 0.0037. For GGACUGGAUACUUUACAACCUACUACCACA, the “pre-steady-state target cleavage rate” value was 0.205 ± 0.025.
